# Reference: paper PMC4336329 (PLoS ONE, 2015)
# Screen size: about 310,000 compounds; about 2,200 (0.71%) showed an effect of 50% or more. The effect is printed as a negative number. The list shows a part of the results.
# Target: human ether-à-go-go-related gene (hERG) potassium channel (human, UniProt Q12809)
# Assay: primary screen, population patch clamp on CHO cells stably expressing hERG
# human ether-à-go-go-related gene (hERG) potassium channel, sequence (Q12809 whole entry, looked up): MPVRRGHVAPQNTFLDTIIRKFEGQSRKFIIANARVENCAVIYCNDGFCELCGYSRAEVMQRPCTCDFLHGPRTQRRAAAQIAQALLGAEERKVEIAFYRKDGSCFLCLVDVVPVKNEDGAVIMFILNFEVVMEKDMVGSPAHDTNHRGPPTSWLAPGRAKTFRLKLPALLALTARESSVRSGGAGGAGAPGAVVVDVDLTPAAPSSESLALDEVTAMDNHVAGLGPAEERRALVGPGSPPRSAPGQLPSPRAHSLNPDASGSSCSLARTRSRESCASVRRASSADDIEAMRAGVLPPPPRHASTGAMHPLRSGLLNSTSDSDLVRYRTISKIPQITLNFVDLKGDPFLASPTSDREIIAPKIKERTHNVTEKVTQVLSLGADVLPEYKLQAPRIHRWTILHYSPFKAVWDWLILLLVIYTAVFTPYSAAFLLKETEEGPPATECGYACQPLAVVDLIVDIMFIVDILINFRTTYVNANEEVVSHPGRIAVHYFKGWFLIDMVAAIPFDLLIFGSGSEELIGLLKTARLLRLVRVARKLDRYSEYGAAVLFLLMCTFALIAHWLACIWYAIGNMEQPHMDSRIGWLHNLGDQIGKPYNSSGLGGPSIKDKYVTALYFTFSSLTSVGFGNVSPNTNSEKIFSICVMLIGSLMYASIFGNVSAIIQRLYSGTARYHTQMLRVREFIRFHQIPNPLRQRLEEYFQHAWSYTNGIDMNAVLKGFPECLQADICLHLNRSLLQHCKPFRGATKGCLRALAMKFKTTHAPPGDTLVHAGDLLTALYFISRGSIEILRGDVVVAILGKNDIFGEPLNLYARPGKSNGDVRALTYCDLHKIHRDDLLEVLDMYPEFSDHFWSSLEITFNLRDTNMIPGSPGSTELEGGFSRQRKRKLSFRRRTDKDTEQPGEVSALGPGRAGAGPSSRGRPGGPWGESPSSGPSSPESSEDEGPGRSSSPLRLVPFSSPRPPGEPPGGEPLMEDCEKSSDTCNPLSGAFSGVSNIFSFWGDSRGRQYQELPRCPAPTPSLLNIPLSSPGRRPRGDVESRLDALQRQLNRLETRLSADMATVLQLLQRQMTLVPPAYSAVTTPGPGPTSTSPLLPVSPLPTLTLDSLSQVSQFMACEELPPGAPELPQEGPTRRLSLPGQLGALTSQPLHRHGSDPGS
row,Structure (SMILES),"hERG current change (%, negative = inhibition) at 1uM"
1,Cc1csc(=Nc2cccnc2)n1CC1CCCCC1,12.7%
2,CSc1c(CN2CCN(C)CC2)c2ccccc2n1C.Cl,10.2%
3,Cc1sc(NC(=O)CN2CCOCC2)nc1-c1ccc2c(c1)CCN2S(=O)(=O)c1ccccc1,4.82%
4,CN1C(=O)c2cccc3c(S(=O)(=O)Nc4ccc(O)c(C(=O)O)c4)ccc1c23,11.9%
5,N#Cc1cccc(C#N)c1NCC1CCCO1 (centres unmarked),18.2%
6,Cc1onc(-c2ccccc2)c1C(=O)NNC(=S)NC(=O)/C=C/c1ccccc1,14.6%
7,O=S1(=O)C[C@H]2NC(=S)N(c3ccccc3)[C@H]2C1,4.83%
8,CN1CCN(C(=O)c2ccc3c(c2)N(Cc2ccc(Cl)cc2)C(=O)c2ccccc2S3=O)CC1 (centres unmarked),9.42%
9,Cc1cc(C)c(OCCN(C)C)c(Cl)c1.O=C(O)C(=O)O,6.3%
10,Cc1cc(O)cc(C)c1Cl,1.16%
11,CC(=O)[C@@H]1[C@@H](C)N(Cc2ccccc2)C(=O)N[C@H]1c1ccccc1,15.9%
12,CS(=O)(=O)c1ccc2nc(NC(=O)c3ccc(Cl)nc3)sc2c1,15%
13,COc1ccccc1-n1c(SCC(=O)Nc2nnc(C)s2)nc2c(c1=O)SCC2,7.63%
14,Cc1csc2nc(O)c(C(=O)NCc3ccc4c(c3)OCO4)c(=O)n12,11.9%
15,COc1ccc(CNC(=O)COC(=O)c2n[nH]c3ccccc23)cc1,12.1%
16,CC(C)C(=O)N1CCN(S(=O)(=O)c2ccc3ccccc3c2)CC1,7.43%
17,Cc1cccc(C(=O)Nc2cccnc2Cl)c1,9.65%
18,COC(=O)c1ccc(Cn2nc([N+](=O)[O-])c(Br)c2C)cc1,3.9%
19,O=C(COc1ccc(CO)cc1Cl)Nc1ccc(F)cc1,16.6%
20,COc1ccc(CN(C(=O)c2oc3cc(C)c(C)cc3c2C)C2CCS(=O)(=O)C2)cc1OC (centres unmarked),12%
21,CC1=CCC(COC(=O)Nc2ccccc2)CC1 (centres unmarked),11.6%
22,CCOC(=O)N1CCN(C(=O)CSc2nc3c([nH]c4ccccc43)c(=O)n2CC)CC1,9.05%
23,CC(C)CC(=O)N/N=C/c1c(N)n(C)c(=O)n(C)c1=O,19%

row,Structure (SMILES),"hERG current change (%, negative = inhibition) at 1uM"
1,O=C(Nc1ccc(Cl)cc1)N1CCOCC1,12.5%
2,Cc1nn(CC(C)C)c(Cl)c1C(=O)NC1CCC(C)CC1 (centres unmarked),-8.07%
3,COC(=O)C(O)(c1ccc2c(c1)CCCN2)C(F)(F)F (centres unmarked),13%
4,Cn1c(=O)c2c(ncn2CC(=O)Nc2ccc3c(c2)OCO3)n(C)c1=O,6.84%
5,Cc1ccccc1S(=O)(=O)Cc1ccc(C(=O)NCCN(Cc2ccccc2)C(C)C)o1,-20.9%
6,Cc1ccsc1-c1nc(CSCC(=O)NCc2ccc3c(c2)OCO3)c(C)o1,-1.88%
7,Cl.OCCCCNCc1cc(Br)ccc1OCc1ccccc1,-7.34%
8,O=C(Nc1ccc(F)cc1)N1CCCN(c2nccc(C(F)(F)F)n2)CC1,6.72%
9,CN(c1cccc(Cl)c1)S(=O)(=O)c1cccc(C(=O)Nc2ccc3c(c2)CCC3)c1,3.4%
10,CC1(C)C(=O)C2(C(=O)NCc3ccccc3)CCC1C2 (centres unmarked),14.7%
11,CC(Cn1nnc2ccccc21)C(=O)O (centres unmarked),8.59%
12,COc1ccc(NC(=O)COC(=O)c2ccc3ccccc3n2)cc1,12.3%
13,CC(C)CC(=O)NC(C)C(c1cccs1)N1CCOCC1 (centres unmarked),9.86%
14,COc1cc(CCC(=O)N2CCN(c3ncccn3)CC2)cc(OC)c1OC,22.4%
15,CC(C)NS(=O)(=O)c1ccc(NC(=O)C2CC3C=CC2C3)cc1 (centres unmarked),13.5%
16,CNC(=O)NC(=O)C(C)N1CCN(C/C=C/c2ccccc2)CC1 (centres unmarked),-32.1%
17,CC(C)NC(=S)Nc1ccc(Oc2ccccc2)cc1,6.98%
18,Cn1c(COc2ccccc2)nnc1SCc1cc(=O)[nH]c2ccccc12,-6.57%
19,COc1ccc(C(=O)NC(C)CCn2cccn2)cc1OC1CCN(C(C)C)CC1 (centres unmarked),17.8%
20,CCC1SC(C)C/C(=N/NC(N)=O)C1C (centres unmarked),11%
21,Cc1ccc(S(=O)(=O)N(C)C)cc1NC(=O)CSc1nnnn1-c1ccc(O)cc1,10.6%
22,Cc1ccccc1C(=O)NC(=S)Nc1ccc(Oc2ccc(Cl)cc2)cc1,11.8%
23,CC(C)(C)c1cc(/C=N/NC(=O)Cc2nc3ccccc3[nH]2)cc(C(C)(C)C)c1O,12%

row,Structure (SMILES),"hERG current change (%, negative = inhibition) at 1uM"
1,CCOC(=O)c1ccc(Cl)c(S(=O)(=O)N2CCCC2)c1,32.5%
2,COc1ccc(N2C(=O)C(Cl)=C(Nc3ccccc3O)C2=O)cc1,16.6%
3,CNC(=O)/C(C#N)=C\c1ccc(CNS(=O)(=O)c2ccc(Cl)cc2)o1,12.3%
4,O=c1[nH]n2c(=O)c3c([nH]c2c1N=Nc1cccc(Cl)c1)CCC3,12.2%
5,CCC1Sc2ccc(S(=O)(=O)CCC(=O)Nc3ccc(NC(C)=O)cc3)cc2NC1=O (centres unmarked),15%
6,COc1ccc(CCCNC(=O)CC#N)cc1OC,11.7%
7,NCC/C=C1/c2ccccc2CSc2ccccc21.O=C(O)/C=C\C(=O)O,9.91%
8,O=C1NC(=O)C(=Cc2coc3ccccc3c2=O)C(=O)N1,14%
9,COc1cc(/C=N/NC(=O)COc2c(C)cc([N+](=O)[O-])cc2C)ccc1OC(=O)c1ccccc1,6.47%
10,O=C1CCCN2N=C(SCC(=O)Nc3ccc(Br)cc3)SC2=N1,14.1%
11,COc1ccc(Cl)cc1NC(=O)C/C(C)=N/NC(=O)c1ccc(O)cc1,8.84%
12,O=C(c1cccs1)N1CCCC(c2nc(-c3ccc(F)cc3)no2)C1 (centres unmarked),-10.8%
13,CCSc1nc2c(c(=O)[nH]c(=O)n2C)n1CC(O)COc1ccccc1 (centres unmarked),14.8%
14,Cc1ccc(S(=O)(=O)c2cc3c(=O)n4ccccc4nc3n(C)c2=N)cc1C,18.8%
15,CCOC(=O)C(NCCc1ccccc1F)(NC(C)=O)C(F)(F)F (centres unmarked),5.66%
16,CN=C(Nc1cc(C)nn1CCC#N)c1ccccc1,13.3%
17,COc1cccc(NC(=O)Nc2cccn(Cc3ccccc3)c2=O)c1,-1.23%
18,CCOC(=O)COc1ccc2c(c1)c(C(C)=O)c(C)n2-c1ccc(OC)cc1,6.9%
19,O=C(NCc1cccnc1)c1cc(S(=O)(=O)N2CCOCC2)c(Cl)cc1Cl,8.44%
20,Cc1ccc(S(=O)(=O)NC2(C(F)(F)F)C(=O)Nc3c2c(=O)[nH]c(=O)n3-c2ccccc2)cc1 (centres unmarked),12.2%
21,OCCC1CN(Cc2ccccc2-c2ccco2)CCN1C1CCCC1 (centres unmarked),-44.6%
22,CCN(C(=O)CSc1ccc2ccccc2n1)C1CCS(=O)(=O)C1 (centres unmarked),3.17%
23,COc1ccc(-c2cc(C(=O)n3cnc4ccccc43)c3ccccc3n2)cc1,5.65%

row,Structure (SMILES),"hERG current change (%, negative = inhibition) at 1uM"
1,CCc1ccc(-c2cc(C)no2)cc1S(=O)(=O)NCCN1CCC(C)CC1,12.5%
2,Cc1ccc(Nc2nnc(SCC(=O)NC3CCCc4ccccc43)s2)cc1 (centres unmarked),5.92%
3,COCCCNC(=O)COc1ccc(-c2nccc(-c3ccccn3)n2)cc1,2.01%
4,CCOC(=O)c1ccccc1NC(=O)C(C)Oc1ccccc1 (centres unmarked),9.9%
5,C/C(CC(=O)Nc1cccc(C(F)(F)F)c1)=N\NC(=O)C1CCCCC1,5.22%
6,Cc1ccc(NC(=O)CSc2nc(N)cc(=O)[nH]2)cc1S(=O)(=O)N1CCOCC1,11.5%
7,Cc1ccc(OCc2cc(C(=O)N3CCCCCCC3)no2)cc1C,13%
8,Cc1csc(NC(=O)CCC(=O)N(CC(=O)NC2CCCC2)Cc2ccco2)n1,7.83%
9,CCCCc1nc(N2CCOCC2)c(C#N)c2c1CCCC2,5.05%
10,CC(C)(C)CC(C)(C)NC(=S)N1CCN(Cc2ccc3c(c2)OCO3)CC1,27.4%
11,CCn1c(=O)[nH]c2cc(C(=O)N3CCN(c4ccccc4)CC3)ccc2c1=O,2.87%
12,CC1=[N+](C)N(c2ccccc2)C(=O)C1N=C/C=C/c1ccccc1 (centres unmarked),12.3%
13,Cc1c(/C=N\NC(=O)c2csc3ccccc23)cnn1C,16.9%
14,O=[N+]([O-])c1cc(S(=O)(=O)C(F)(F)F)ccc1NCC1CCCO1 (centres unmarked),14.9%
15,CCN1C[C@@]2(COC)C3[C@@H](OC)[C@H]4[C@@H]1[C@@]3(C1C[C@H]3[C@H](O)C1[C@]4(O)C[C@H]3OC)[C@@H](OC)C[C@H]2O (some centres unmarked),15.9%
16,CCOC(=O)c1ccc(NC(=O)CSc2nc3sc(C(=O)O)c(C)c3c(=O)[nH]2)cc1,9.7%
17,Cc1cc(C)n(-c2nnc(C)n2/N=C/c2ccccc2F)n1,3.39%
18,O=C(O)C(Cc1ccccc1)N1C(=O)c2ccccc2C1=O (centres unmarked),5.5%
19,CCc1nonc1NC(=O)c1oc2c(C)c(C)ccc2c1C,11.9%
20,CCCN1CCN(C(=S)Nc2ccc3nc(N4CCN(CC)CC4)cc(C)c3c2)CC1,13.6%
